Source: the supplement of paper PMC3334620
Over roughly 33,000 sequences, “E-score (-0.5 to 0.5)” has its median near -0.04; the highest 2% begin near 0.36. This is one part of the list.

What follows are sequences tested against T1, Hmlalpha2 (UniProt P0CY09) (assay: PBM E-score (8-mer binding enrichment) (E-score (-0.5 to 0.5)); higher = stronger / more preferred TF binding; most listed sequences are background and not binding sites). Conditions: protein concentration: 200 nM; construct: GST-full length.
T1 sequence: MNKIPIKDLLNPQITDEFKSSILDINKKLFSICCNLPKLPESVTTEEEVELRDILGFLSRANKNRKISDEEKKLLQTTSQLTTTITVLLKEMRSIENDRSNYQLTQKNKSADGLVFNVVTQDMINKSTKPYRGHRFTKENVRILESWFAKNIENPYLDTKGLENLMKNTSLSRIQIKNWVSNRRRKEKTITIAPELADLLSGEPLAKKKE
Summary of the method: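 Bound GST-tagged yeast transcription factors, applied at about 100-200 nM to double-stranded universal all-10-mer Agilent arrays, were detected with fluorescent anti-GST. Scans were normalised with masliner. A modified Wilcoxon-Mann-Whitney statistic, the E-score, was assigned to each ungapped eight-base word pooled with its reverse complement by the Universal PBM Analysis Suite.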

Sequence | PBM E-score
CTCCTCAG | -0.376
TCCGTCGA | -0.125
GTCATCGA | -0.0402
CTTCCAGC | -0.289
TCGAAACA | 0.152
CTATAAGA | -0.198
ACCACCAG | -0.148
GCCCTTAC | -0.0944
ACTCGAGA | -0.17
CAGGGGCC | -0.205
GCGGGCAC | -0.0969
GTAGACAC | 0.19
ACCGATGC | -0.222
CAAGAGCG | -0.184
ATGACTAA | -0.113
CCTGGGGA | -0.389
CGGTGTGA | 0.0349
GAATGCGC | -0.00918
ATATGATC | 0.0322
AGAGCGGC | -0.195
ATTGCCAA | -0.206
GTGAAGCA | -0.113
GCCAAAGA | -0.132
ACAGGCAA | 0.0701
GACGGGTA | -0.103

Sequence | PBM E-score
CATAGGGC | -0.2
CATTCAGG | -0.254
AATGTGGA | 0.0913
ACCGTATG | -0.0129
AGTGAAGG | -0.0841
ACCAAGAT | 0.0339
CCACCAAA | -0.182
GCTGCTAC | -0.143
GATACTGA | -0.0889
CGTTTACA | 0.452
CCATCTAG | -0.171
GGGCCGAC | -0.164
CCCATTAC | 0.124
ACTCGGCG | -0.0699
CTTGCTAA | 0.132
CCGGGGCA | -0.219
AAAACCCT | -0.022
CCATTCAC | -0.0258
CCATGGGA | -0.252
AGCCCCAT | -0.125
CCTGGGTA | -0.0828
CATGAGAA | 0.194
CTTCCGTC | -0.213
ACCAACCA | -0.0314
CGTCGTTC | 0.0974

Sequence | PBM E-score
CAGGGACC | -0.288
CATGCGAG | -0.0337
AGAAAATG | 0.0892
AGCTTCAG | -0.18
AAGAAAGG | 0.085
GCTGAGCC | -0.041
ACAGGGAT | 0.0683
ATCGAAGC | -0.128
CACACCGA | 0.101
ACATAACT | 0.325
GGTTGACA | 0.191
CAGGTAAA | 0.236
CGGCCTAA | -0.0668
GGCGAGCC | -0.135
CGGTAACG | -0.18
AGATGAAA | 0.0863
CTAGCGAA | -0.22
CATCGATC | -0.0854
CAGACGCA | -0.16
GATGGGAA | -0.167
AGGTTAAG | 0.0826
CGCCCCGA | -0.308
GCACAAAC | 0.0766
CCTGAAGG | -0.357
CCCCAACA | 0.0173

Sequence | PBM E-score
CCAGTCGC | -0.208
ACCTACGA | 0.00015
AGTGCCGC | -0.27
CAGGCCTA | -0.0179
CACTGATA | -0.0328
CCTCAGAA | -0.106
AGTTCCAG | -0.148
GTGACGTA | 0.214
AGAGTTCG | 0.0753
CGTAAGGA | -0.0158
ATCGATGA | 0.225
CCTCTCCC | -0.235
ATCTCCAG | -0.134
TAGTAGCA | 0.036
AAAATCTG | 0.0313
CGCTTCCC | -0.0728
CGTATGAG | -0.0766
ATCTGTGA | -0.0783
AAAGCACC | -0.275
CAACCATG | 0.127
CCGCGGCA | -0.245
AGCTTGAG | -0.187
GTGGCTCA | -0.127
CAAGTCAA | 0.085
TAATGCTA | 0.267

Sequence | PBM E-score
ACAGTCCA | 0.0438
ACAAGAGG | 0.0656
GGTTCCTA | -0.087
GATGGGCA | -0.112
AACGTCAA | 0.186
CTTGTGAA | 0.182
AAACGCCA | 0.0702
ATAGGACC | -0.146
AATATGGT | -0.0785
AAGGTGCA | -0.0293
CGTAGTCC | -0.176
AAGGAAAG | -0.28
CCCTTATA | -0.002
AACGGGGC | -0.247
CTCAAGTC | -0.11
AGTAGCCA | -0.274
ATTTTCTC | -0.129
GATTGATA | 0.148
AAAGACCT | -0.206
AGATTCGA | -0.134
CTGATAGA | 0.0465
CATGCTGC | 0.00676
CTCATGCA | -0.0449
TTATTAAA | 0.246
GGCATGCC | -0.191

Sequence | PBM E-score
CTCTATCC | -0.271
GGTTCTAC | 0.0675
GTCGACTA | 0.168
CTTGCTCC | -0.194
ACTTGGGA | -0.23
AATTCAAG | 0.144
GCTCAAAA | -0.0457
ATAAGATG | -0.0523
CATATGTC | -0.0145
CATGCTAG | 0.19
ATACCACC | -0.141
GGCTCACC | -0.298
TGCAACAA | 0.226
GCGGAGCC | -0.284
GTATTAGA | 0.289
ACCAGCAG | -0.248
CACTCTAC | 0.269
TCAAACCA | 0.123
AGCCAGGA | -0.152
ACATTCAT | 0.259
CGGTGGTC | -0.22
ATCGGGCA | -0.13
CCGCCATA | -0.0564
CATCTCCG | 0.0167
AAGCCACA | -0.0453

Sequence | PBM E-score
CCCACTCC | -0.241
ATTCTTCC | -0.227
GCACACCA | -0.0935
CCCGGAGC | -0.221
GTCCATTA | 0.184
TCGCGTCA | 0.21
ATGTCTGC | 0.0622
AACGACCC | -0.223
GCACTATA | -0.0092
CGCGATAA | 0.0422
CAGATGGA | -0.0765
ACTACACA | 0.406
TGACAGAA | 0.0794
ATGAAAAC | 0.17
AACAGGTC | 0.0824
CACAGACA | 0.168
CCGATAAA | -0.0565
GGGTGATA | -0.271
CTCCTAAG | -0.115
AGGGGCCG | -0.365
ATGCATTG | 0.122
AAACTGGG | -0.278
ATTACGCA | 0.435
CTATGCCC | -0.266
ATTCCATG | 0.122

Sequence | PBM E-score
AAACCTCT | -0.08
CGAGGTCC | -0.214
GACCATCC | -0.268
GATATACA | 0.339
ACTCCGTG | -0.0267
AGAGTTCC | -0.262
ACCTTGTC | 0.0297
AGAGTCCG | -0.152
CCTTGGTA | 0.14
CACGTCGA | 0.109
AGCACTAA | -0.106
AGGTAGGC | -0.315
CATTGAGG | -0.0995
CGGGATTC | 0.00245
CTTTGGTC | -0.0966
AACGCTAA | 0.00237
AGTTCTCC | -0.286
GCTTGTAA | 0.411
CTAAATCC | -0.229
ATCCATGG | -0.148
CTCACAAG | -0.0443
CGTATATA | 0.276
GAGATCAA | -0.0313
AAGCTGAT | 0.0747
CCCCGAAG | -0.211

Sequence | PBM E-score
CCTATAGA | -0.193
ATGTTTCA | 0.13
GAAGGGAC | -0.27
AAGACCAT | -0.215
CCGGGACC | -0.341
GGATCAAA | -0.0579
GGATCGCC | -0.144
AAAGACGA | -0.0132
AGGGAGAG | -0.258
GACAGGTA | -0.0962
CACAGCAC | 0.165
ACAAGTAC | 0.165
GGCTACAC | 0.164
AGGACAAG | -0.0379
AATTTTCG | 0.046
ACGCGAGA | 0.186
GCAAACGA | 0.119
CTATCTTC | -0.02
GAGCAAAC | 0.00373
AGGACTAT | -0.156
GAAGCGGA | -0.149
CCCGGCGA | -0.168
CCCCTAAC | -0.217
CATCACAG | 0.0154
ATGACCAT | 0.0709

Sequence | PBM E-score
CACGAAGG | -0.00404
AACGACGT | 0.148
CTGCATGA | -0.271
CCAACGCG | 0.202
AACGCCAT | 0.00213
CATTGACA | 0.255
AGTATATG | -0.0273
CCCTCGTA | 0.0861
AGGGCGTG | -0.0225
CGCCCGGC | -0.302
GGAACCGA | -0.13
CCAATGAA | -0.202
CCCCCTAC | -0.279
CGTGTATC | 0.332
ACCACTGA | -0.123
ATATAGTC | 0.0845
AAGATTCC | 0.0157
GCTGAACC | -0.0421
ACACCCGA | -0.012
GGAGTACC | -0.114
ATGAAATC | 0.18
CGAGAGAA | -0.0824
CCGTAATA | 0.159
CGAGGCAC | -0.203
CTCGTTTC | -0.12

Sequence | PBM E-score
GGAATTAC | 0.271
AATAGGAT | 0.105
CGCTCTCA | -0.165
TACGTTGA | 0.266
TAGTGTCA | 0.0999
AGAATCCT | -0.161
AGCTTCAA | 0.0171
TCCCGGAA | -0.207
ATTCACCC | -0.215
ATTTTAAC | 0.313
AAGACAGC | -0.0479
GAAATCGA | -0.169
CCCTTCGA | -0.27
AGAACTCC | -0.137
GAGGTTGC | -0.183
GTGGGGTA | -0.102
ACTCGTTG | 0.134
AACATGAA | 0.397
TGTTCGAA | 0.147
AAGCAATC | 0.00849
AAAGTAGC | -0.161
ACTCTGTA | 0.204
ATGACGGG | -0.102
CATGGAAG | 0.015
AACCCCCT | -0.179

Sequence | PBM E-score
CGTTATCA | 0.187
TACAGTAA | 0.201
CTTATGAA | 0.0396
AAGTTTTA | 0.213
GTTCGAAA | 0.0864
ATAGGTTC | 0.023
TGGCCCCA | -0.327
CCTAAGAG | -0.136
ACTTGGGC | -0.278
AGAGAACC | -0.234
GAATTCCA | -0.0553
AAATCTTC | 0.0872
AGTCACGC | -0.202
CCGATCGA | -0.125
ACCTGCCT | -0.147
CTAGATAG | 0.0174
ATACGGAA | 0.0413
TCCCAGGA | -0.361
GATAGAAA | -0.0893
ACCGCGAC | -0.0174
CCGTAGAA | -0.0337
GGACGCTA | -0.091
AAGCTTGC | -0.0359
GGCCCATA | -0.146
CCCGGTCC | -0.383

Sequence | PBM E-score
AGAAAATA | -0.04
CACGTGGG | -0.103
AAAAATAA | 0.131
TTAAGAAA | 0.137
GCTCAAGC | -0.236
ATTCCCGG | 0.0259
CGGCAGTA | -0.297
AGGTAGAG | 0.079
ACAGCGAC | -0.15
ATGCGCGC | 0.108
ACTTAAAA | 0.193
GTTATCGA | 0.0323
ACGGTTGC | -0.0543
AAGGGGCC | -0.273
CGGCTATC | -0.192
CTGGCCAA | -0.0171
CCCATAGG | -0.23
CACATTCC | 0.0026
CCTTGGCA | -0.285
GTATCAAA | 0.176
AAGCCCTA | 0.0656
CCCTGCAA | -0.124
CTTAACAC | 0.419
ACGGGAGT | -0.0916
AGTTATTG | 0.105

Sequence | PBM E-score
CACCTCGC | -0.276
CAAGCGTA | 0.231
AACTATTC | -0.0344
ATCTTTTC | 0.038
TGTGGAAA | 0.174
GGTGGTCA | -0.279
ACTCCACC | -0.158
AGGCAGAG | -0.147
ATTCCCGC | -0.0624
CCCGCTGA | -0.28
CCCTATTC | -0.322
AGGAGCCG | -0.281
AGAGAACA | 0.174
ACATAGCC | 0.231
CCAACACC | -0.206
AAAACTCC | -0.134
AAAGTGTG | 0.124
GTCGTAAA | 0.244
AGAACAAT | 0.223
